# In all, about 360,000 compounds went through this assay and about 6,000 (1.7%) were called active. The inconclusive results got no clear call from the source; some entries with a clear call stand among them for comparison. The call rests on the fitted dose curve; in most records, active means well fitted cell-killing curve with a large enough effect; inconclusive means small, poorly fitted or top-dose-only effect, or effect the other way; inactive means flat fitted curve, though single readings scatter. No potency is given beside an inconclusive call; the fits are too rough.
# Experiment: qHTS for induction of synthetic lethality in tumor cells producing 2HG: qHTS for the HT-1080-NT fibrosarcoma cell line;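 further: NT is the 2HG producing partner of a matched IDH1 knockdown line; nearly all actives have a fitted effect of over 55% in size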;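 on activity, negative = less viability: 0% = DMSO-treated cells and -100% = media-only wells without cells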
# Details: HT-1080-NT fibrosarcoma viability, CellTiter-Glo ATP luminescence, 48 h; activity, negative = less viability: at 46.1 µM (top of the series) unless noted
# Procedure, shortened: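 Luminescent CellTiter-Glo readout after 48 hours of compound exposure at 37 degrees C defined viability of HT-1080-NT cells. Activity was normalized to DMSO wells and cell-free media wells; concentration-response curves were fitted and assigned curve classes.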
# Potency means the concentration at half of the fitted maximal effect; tags describe the fitted curve by direction and shape.
Compound,Potency,"activity, negative = less viability"
COc1ccc(CCC(=O)Nc2nc3ccccc3[nH]2)cc1,"inconclusive [cytotoxic, single point]",–
Cc1cc(C)cc(NC(=O)c2cccn2-c2ncc(C(F)(F)F)cc2Cl)c1,inactive,–
CCc1c(C)nc2ncnn2c1NCCc1ccc(OC)cc1,active: 6.31 µM,–
Cc1cc(C)cc(-n2nnnc2SCC(=O)Nc2nc(-c3ccc(F)cc3)cs2)c1,"inconclusive [cytotoxic, single point]",–
COc1ccc2cc(C3CC(c4ccco4)=NN3C(=O)CCC(=O)O)c(Cl)nc2c1 (stereo unspecified),inactive,–
CCc1noc(C)c1C(=O)Nc1cc(S(=O)(=O)N(CC)CC)ccc1N1CCCC1,inactive,–
Cc1ccccc1OCC(=O)Nc1cccc2nsnc12,"inconclusive [cytotoxic, single point]",–
CCOC(=O)c1c(NC(=O)COc2ncnc3sccc23)sc2c1CCC2,"inconclusive [cytotoxic, single point]",–
Cc1nn(CCC(N)=O)c2nc(-c3cccs3)cc(C(F)(F)F)c12,"inconclusive [cytotoxic, single point]",–
CCCC1=C(C(=O)OCC)C(/C=C/c2ccccc2)n2ncnc2N1 (stereo unspecified),active: 22.4 µM,–
CN(CCc1ccccc1)C(=O)c1ccc(NC(=O)Cc2ccc(NC(=O)C3CCN(C(=O)C4CC4)CC3)cc2)cc1,inactive,–
CC1S/C(=N\N=C\c2cccc([N+](=O)[O-])c2)N(C(C)(C)C)C1=O (stereo unspecified),"inconclusive [cytotoxic, single point]",–
Nc1nonc1C(=O)NCCNS(=O)(=O)c1ccc(Br)cc1,inactive,–
COc1cccc(-n2sc3c(c2=S)-c2cc(OC)ccc2NC3(C)C)c1,"inconclusive [cytotoxic, single point]",–
Clc1ccccc1N1CCN(Cc2c[nH]c3ccccc23)CC1,"inconclusive [cytotoxic, single point]",–
Cc1cc(C2(c3ccc(O)c(C)c3)C(=O)Nc3ccccc32)ccc1O,active: 18.4 µM,–
COc1ccc(CN2CCN(Cc3ccccc3C(F)(F)F)CC2)c(OC)c1,"inconclusive [cytotoxic, full curve]",–
O=S(=O)(NCc1cccnc1)c1cccn1-c1ncc(C(F)(F)F)cc1Cl,"inconclusive [cytotoxic, single point]",–
CCc1nc2ccc(C(=O)NCCOc3ccc(OC)cc3)cn2c1N(C)Cc1ccc(OC)cc1,"inconclusive [cytotoxic, single point]",–
CCn1c(SCC(=O)Nc2cccc(F)c2)nnc1-c1cc2cc(Br)ccc2o1,"inconclusive [cytotoxic, single point]",–
COc1ccc(S(=O)(=O)N(C)[C@H]2C[C@H]3c4cc(-c5ccccc5)ccc4CCN3C(=O)[C@H]2[C@H](C)O)cc1,"inconclusive [cytotoxic, single point]",–
CCOC(=O)C1CCN(CC(O)COc2ccc(C(C)(C)C)cc2)CC1 (stereo unspecified),"inconclusive [cytotoxic, single point]",–

Compound,Potency,"activity, negative = less viability"
CCC(CC)C(=O)N(C)c1c(C)nc2c(OCC(=O)C(C)(C)C)cccn12,"inconclusive [rising, single point]",–
O=C(C1=C[C@H](c2ccc(C(F)(F)F)cc2)C[C@H](OCc2ccc(CO)cc2)O1)N1CCCCCCC1,"inconclusive [cytotoxic, single point]",–
CCOc1ccc(N(C)c2ccc(/C=C3/SC(=S)NC3=O)cc2)cc1,"inconclusive [cytotoxic, partial curve]",–
COC(=O)c1c(NC(=O)CN2C(=O)NC(CCc3ccccc3)C2=O)sc2c1CCCCC2 (stereo unspecified),"inconclusive [cytotoxic, single point]",–
CCC1=NC(c2ccc(Br)cc2)N(O)C1(C)C (stereo unspecified),"inconclusive [rising, single point]",–
CC(=O)c1cccc(NC(=O)CSc2nnc(-c3cccnc3)o2)c1,"inconclusive [rising, single point]",–
O=C(Nc1cccc(Cl)c1)N(CCN1CCOCC1)Cc1cccc(Cl)c1,"inconclusive [cytotoxic, single point]",–
CCOc1ccc(OCc2cccc(C(=O)Nc3ccc(CN4CCCCC4)cc3)c2)cc1,active: 14.6 µM,–
COc1ccc2c(c1)c(C(=O)N/N=C/c1ccc(Br)cc1)c(C)n2C,"inconclusive [cytotoxic, single point]",–
CCOC(=O)c1ccc2ncc(C(=O)OCC)c(NCc3ccco3)c2c1,"inconclusive [cytotoxic, single point]",–
Cc1cc(C(C)(C)C)cc(C)c1C[n+]1ccc2ccccc2c1,"inconclusive [cytotoxic, partial curve]",–
COc1cc(C=O)ccc1OCC(=O)Nc1ccccc1N1CCOCC1,inactive,–
NC(=S)n1[nH]c(-c2ccc([N+](=O)[O-])cc2)c(N=Nc2cccc([N+](=O)[O-])c2)c1=O,active: 1.46 µM,–
CCOc1ccc(N(CCC#N)S(=O)(=O)c2ccc(OC)cc2)cc1,"inconclusive [cytotoxic, partial curve]",–
C=CCOc1ccc(/C=C(\C#N)C(=O)Nc2ccccn2)cc1OC,inactive,–
CCC(=O)[C@@]1(C)[C@H](C)C[C@H]2[C@@H]3CCC4=CC(=O)C=C[C@]4(C)[C@H]3[C@@H](O)C[C@@]21C,"inconclusive [rising, partial curve, poor fit]",–
Cn1cnc([N+](=O)[O-])c1Sc1nc(N)nc2c1ncn2C1CC(O)C(CO)O1 (stereo unspecified),active: 2.31 µM,–
Cc1ccc2c(c1)c(=O)c1c3n2CCN(C(=O)CCl)C3CC1 (stereo unspecified),inactive,–
O=C(NCCCN=C1NS(=O)(=O)c2ccccc21)c1ccc(S(=O)(=O)N2CCCCC2)cc1,"inconclusive [cytotoxic, single point]",–
COc1cc(C(=O)NCCOc2cc(C)cc(C)c2)c(Br)c(OC)c1OC,"inconclusive [cytotoxic, partial curve]",–
Cc1ccc(-c2nnc(-c3ccc(NC(=O)Cc4cccs4)cc3)o2)cc1,"inconclusive [cytotoxic, single point]",–
c1ccc(Nc2nc(NCCN3CCOCC3)nc(Nc3ccccc3)n2)cc1,"inconclusive [cytotoxic, single point]",–

Compound,Potency,"activity, negative = less viability"
O=C(Nc1nc(-c2cccs2)cs1)c1ccc(Cl)cc1,"inconclusive [cytotoxic, single point]",–
S=C(NNc1ccnc2cc(Cl)ccc12)Nc1ccc(Cl)cc1Cl,"inconclusive [cytotoxic, single point]",–
NC1=NC(=O)/C(=C/c2ccc(Br)cc2)S1,inactive,–
O=C1/C(=C\c2ccc([N+](=O)[O-])cc2)CS(=O)(=O)C/C1=C/c1ccc([N+](=O)[O-])cc1,"inconclusive [cytotoxic, single point]",–
COc1ccc(NC(=O)c2ccccn2)cc1OC,–,inconclusive: -2.17%
CC(C)(C)c1ccc(C(=O)NC(=S)NNC(=O)c2cccs2)cc1,"inconclusive [cytotoxic, single point]",–
COc1ccc(/C=N/NC(=O)c2ccc(N)cc2)cc1Cn1cc([N+](=O)[O-])cn1,"inconclusive [cytotoxic, single point]",–
CC(=O)Nc1cccc(-c2ccnc3c2CC(C)(C(=O)Nc2ccc(F)c(Cl)c2)O3)c1 (stereo unspecified),"inconclusive [cytotoxic, single point]",–
COc1ccc(-c2cnn3c4c(c(C)nc23)CCN4C(C)C)cc1OC,inactive,–
COc1ccc(OC2C(=O)N(Cc3ccc4c(c3)OCO4)C2c2sccc2C)cc1 (stereo unspecified),"inconclusive [cytotoxic, single point]",–
O=C(c1cccc(N2CCCC2=O)c1)N1CCN(c2cccc(Cl)c2)CC1,"inconclusive [cytotoxic, full curve, poor fit]",–
CC1(C(=O)NCc2cccc(C(F)(F)F)c2)CCN1Cc1ccc2ccccc2c1 (stereo unspecified),"inconclusive [cytotoxic, single point]",–
CCOc1ccc(C(C)=O)cc1COC(=O)c1cnc(Cl)c(Cl)c1,"inconclusive [cytotoxic, single point]",–
Cc1ccc(NC(=O)c2ccccc2NS(=O)(=O)c2ccc(Cl)s2)cc1S(=O)(=O)N1CCOCC1,"inconclusive [cytotoxic, partial curve, poor fit]",–
CC(C)(C)C(=O)N1CCN(S(=O)(=O)c2ccc3c(c2)OCCCO3)CC1,inactive,–
C/C=C/c1ccc(OCCOCCNCc2ccccc2)c(OC)c1,"inconclusive [cytotoxic, single point]",–
COCCNC(=O)CN(c1cc(C(F)(F)F)ccc1Cl)S(C)(=O)=O,inactive,–
COc1ccccc1N1CCN(C(=O)c2ccc(C(C)(C)C)cc2)CC1,"inconclusive [cytotoxic, single point]",–
CCn1c(SC/C=C/c2ccccc2)nnc1-c1cccs1,inactive,–
CC(=O)c1cn(CCOc2cc(C)ccc2C)c2ccccc12,"inconclusive [cytotoxic, partial curve]",–
Cc1ccc(/C=N\NC(=O)c2cc(OCC(F)(F)F)ccc2OCC(F)(F)F)cc1,"inconclusive [cytotoxic, single point]",–
O=C(/C=C/c1ccc(Br)o1)NCCCN1CCOCC1,inactive,–

# Source: PubChem BioAssay AID686970 (National Center for Advancing Translational Sciences (NCATS), 2013)
